Source: PMC4631479, “The structure of the GemC1 coiled coil and its interaction with the Geminin family of coiled-coil proteins” (Acta Crystallographica Section D: Biological Crystallography, 2015)
No constants are given. Whether binding was seen depends on the method and setting. In cells and extracts the contact can be indirect. Some results given as binding are weak or reduced against the parent protein; the word gives no strength. Where a sequence is shown, tags or fusion partners need not be part of it.

T1: HA-tagged GemC1 (human), A6NCL1
T1 chain: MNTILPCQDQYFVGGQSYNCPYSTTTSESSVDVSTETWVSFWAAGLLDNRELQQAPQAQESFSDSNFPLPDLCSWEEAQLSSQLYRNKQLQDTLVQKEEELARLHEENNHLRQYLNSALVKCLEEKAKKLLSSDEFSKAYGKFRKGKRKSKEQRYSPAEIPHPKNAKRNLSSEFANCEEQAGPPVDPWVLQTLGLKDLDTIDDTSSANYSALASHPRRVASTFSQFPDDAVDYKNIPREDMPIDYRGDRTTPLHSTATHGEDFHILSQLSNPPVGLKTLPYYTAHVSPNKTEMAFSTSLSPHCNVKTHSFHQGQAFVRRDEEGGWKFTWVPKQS

T2: HA-tagged GemC1 (human) (UniProt A6NCL1)
T2 sequence: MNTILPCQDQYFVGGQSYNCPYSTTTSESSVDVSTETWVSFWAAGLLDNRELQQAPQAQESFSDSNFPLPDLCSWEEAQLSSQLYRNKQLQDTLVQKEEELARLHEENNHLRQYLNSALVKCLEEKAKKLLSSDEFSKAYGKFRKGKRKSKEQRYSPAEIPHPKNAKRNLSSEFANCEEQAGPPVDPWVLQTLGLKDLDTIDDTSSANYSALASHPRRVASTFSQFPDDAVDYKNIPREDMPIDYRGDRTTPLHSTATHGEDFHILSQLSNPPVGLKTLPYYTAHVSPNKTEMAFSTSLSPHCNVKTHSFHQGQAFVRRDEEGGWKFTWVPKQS

T3: dGemC1 (29-240), His-tagged (human) (UniProt A6NCL1)
T3 sequence: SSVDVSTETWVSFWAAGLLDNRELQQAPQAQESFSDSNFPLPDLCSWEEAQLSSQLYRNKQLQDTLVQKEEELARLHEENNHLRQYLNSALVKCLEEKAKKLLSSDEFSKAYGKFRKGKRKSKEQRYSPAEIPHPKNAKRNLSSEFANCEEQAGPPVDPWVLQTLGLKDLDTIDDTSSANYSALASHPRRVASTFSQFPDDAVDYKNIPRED


Tests used:
[1] = biological target: T1, HA-tagged GemC1 (human), A6NCL1; assay: co-IP; U2OS cells transfected with GemC1-HA alone or with GFP-tagged constructs, collected 24 h after transfection; anti-HA (12CA5) immunoprecipitation, blots with anti-HA, anti-GFP and anti-Geminin; conditions: remark: other sources report otherwise
HA-tagged GemC1 (human) = biological target: T2, HA-tagged GemC1 (human); assay: as above
[2] = biological target: T3, dGemC1 (29-240), His-tagged (human); assay: pull-down; co-expression in bacteria of the His-tagged protein (GemC1 or Idas construct) with untagged Geminin construct; purification by IMAC (Ni2+ affinity) on the tag, Coomassie-stained gel; 50 mM HEPES-NaOH pH 7.5, 150 mM NaCl, 0.5 mM TCEP

| binding (HA-tagged GemC1 (human)) | Binder | also measured |
| --- | --- | --- |
|  | Cdt1-GFP, Q9H211 1-546 (protein) MEQRRVTDFFARRRPGPPRIAPPKLACRTPSPARPALRAPASATSGSRKRARPPAAPGRDQARPPARRRLRLSVDEVSSPSTPEAPDIPACPSPGQKIKKSTPAAGQPPHLTSAQDQDTISELASCLQRARELGARVRALKASAQDAGESCTPEAEGRPEEPCGEKAPAYQRFHALAQPGLPGLVLPYKYQVLAEMFRSMDTIVGMLHNRSETPTFAKVQRGVQDMMRRRFEECNVGQIKTVYPASYRFRQERSVPTFKDGTRRSDYQLTIEPLLEQEADGAAPQLTASRLLQRRQIFSQKLVEHVKEHHKAFLASLSPAMVVPEDQLTRWHPRFNVDEVPDIEPAALPQPPATEKLTTAQEVLARARNLISPRMEKALSQLALRSAAPSSPGSPRPALPATPPATPPAASPSALKGVSQDLLERIRAKEAQKQLAQMTRCPEQEQRLQRLERLPELARVLRSVFVSERKPALSMEVACARMVGSCCTIMSPGEMEKHLLLLSELLPDWLSLHRIRTDTYVKLDKAADLAHITARLAHQTRAEEGL | binding [1]: no binding |
| no binding | Geminin(1-72)-GFP (domain or fragment, UniProt O75496 1-72) MNPSMKQKQEEIKENIKNSSVPRRTLKMIQPSASGSLVGRENELSAGLSKRKHRNDHLTSTTSSPGVIVPES |  |
| binds weakly | Idas-GFP (protein, UniProt D6RGH6 1-385) MQACGGGAAGRRAFDSICPNRMLALPGRALLCKPGKPERKFAPPRKFFPGCTGGSPVSVYEDPPDAEPTALPALTTIDLQDLADCSSLLGSDAPPGGDLAASQNHSHQTEADFNLQDFRDTVDDLISDSSSMMSPTLASGDFPFSPCDISPFGPCLSPPLDPRALQSPPLRPPDVPPPEQYWKEVADQNQRALGDALVENNQLHVTLTQKQEEIASLKERNVQLKELASRTRHLASVLDKLMITQSRDCGAAAEPFLLKAKAKRSLEELVSAAGQDCAEVDAILREISERCDEALQSRDPKRPRLLPEPANTDTRPGNLHGAFRGLRTDCSRSALNLSHSELEEGGSFSTRIRSHSTIRTLAFPQGNAFTIRTANGGYKFRWVPS |  |
|  | dGeminin (29-209), untagged (domain or fragment, UniProt O75496 29-209) IQPSASGSLVGRENELSAGLSKRKHRNDHLTSTTSSPGVIVPESSENKNLGGVTQESFDLMIKENPSSQYWKEVAEKRRKALYEALKENEKLHKEIEQKDNEIARLKKENKELAEVAEHVQYMAELIERLNGEPLDNFESLDNQEFDSEEETVEDSLVEDSEIGTCAEGTVSSSTDAKPCI | binding [2]: binds |
| binds | endogenous Geminin (protein, UniProt O75496 1-209) MNPSMKQKQEEIKENIKNSSVPRRTLKMIQPSASGSLVGRENELSAGLSKRKHRNDHLTSTTSSPGVIVPESSENKNLGGVTQESFDLMIKENPSSQYWKEVAEKRRKALYEALKENEKLHKEIEQKDNEIARLKKENKELAEVAEHVQYMAELIERLNGEPLDNFESLDNQEFDSEEETVEDSLVEDSEIGTCAEGTVSSSTDAKPCI |  |
| binds | Geminin-GFP (protein, UniProt O75496 1-209) MNPSMKQKQEEIKENIKNSSVPRRTLKMIQPSASGSLVGRENELSAGLSKRKHRNDHLTSTTSSPGVIVPESSENKNLGGVTQESFDLMIKENPSSQYWKEVAEKRRKALYEALKENEKLHKEIEQKDNEIARLKKENKELAEVAEHVQYMAELIERLNGEPLDNFESLDNQEFDSEEETVEDSLVEDSEIGTCAEGTVSSSTDAKPCI |  |
